# Data taken from PMC4336329 (PLoS ONE, 2015).
# The campaign covered roughly 310,000 compounds. About 2,200 (0.71%) showed an effect of 50% or more. Effects have a minus sign here. This is one part of the list.
# Target: human ether-à-go-go-related gene (hERG) potassium channel (human, UniProt Q12809)
# Assay: primary screen, population patch clamp on CHO cells stably expressing hERG
# human ether-à-go-go-related gene (hERG) potassium channel, sequence (Q12809 whole entry, looked up): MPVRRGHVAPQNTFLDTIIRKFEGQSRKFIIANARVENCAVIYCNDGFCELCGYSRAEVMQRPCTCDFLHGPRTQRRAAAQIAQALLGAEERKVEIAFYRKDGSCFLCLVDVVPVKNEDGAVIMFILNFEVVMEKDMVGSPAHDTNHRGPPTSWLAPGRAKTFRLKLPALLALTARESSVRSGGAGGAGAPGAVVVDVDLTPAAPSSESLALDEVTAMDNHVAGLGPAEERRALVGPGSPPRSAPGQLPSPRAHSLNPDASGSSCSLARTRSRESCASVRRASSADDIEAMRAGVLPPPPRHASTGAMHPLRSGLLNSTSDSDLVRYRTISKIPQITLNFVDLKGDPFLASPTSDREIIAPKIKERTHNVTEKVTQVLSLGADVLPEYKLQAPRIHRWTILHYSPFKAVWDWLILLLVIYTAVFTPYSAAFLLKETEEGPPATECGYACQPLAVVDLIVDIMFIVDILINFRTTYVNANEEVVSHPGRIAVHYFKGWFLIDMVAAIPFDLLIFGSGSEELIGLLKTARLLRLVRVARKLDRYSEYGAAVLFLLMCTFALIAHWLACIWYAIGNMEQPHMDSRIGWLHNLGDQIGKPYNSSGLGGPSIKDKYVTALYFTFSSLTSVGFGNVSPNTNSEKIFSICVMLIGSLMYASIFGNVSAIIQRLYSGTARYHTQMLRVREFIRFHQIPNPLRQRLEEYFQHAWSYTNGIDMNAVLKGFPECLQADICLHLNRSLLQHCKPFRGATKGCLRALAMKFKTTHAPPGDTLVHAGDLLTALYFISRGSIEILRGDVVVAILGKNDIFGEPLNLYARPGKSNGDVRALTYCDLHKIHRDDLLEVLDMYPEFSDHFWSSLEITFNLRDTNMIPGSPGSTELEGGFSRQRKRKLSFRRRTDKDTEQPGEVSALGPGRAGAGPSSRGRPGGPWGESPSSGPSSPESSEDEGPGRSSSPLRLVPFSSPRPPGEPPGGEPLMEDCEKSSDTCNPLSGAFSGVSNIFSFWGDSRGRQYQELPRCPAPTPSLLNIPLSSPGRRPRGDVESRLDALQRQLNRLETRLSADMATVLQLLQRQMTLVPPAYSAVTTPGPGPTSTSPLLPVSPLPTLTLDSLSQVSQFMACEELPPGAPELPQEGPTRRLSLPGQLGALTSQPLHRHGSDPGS
row,Structure (SMILES),"hERG current change (%, negative = inhibition) at 1uM [%]"
1,O=C(COC(=O)c1cc([N+](=O)[O-])ccc1N1CCOCC1)c1ccccc1Cl,5.21
2,O=C(COc1ccccc1)Nc1c2c(nn1-c1ccccc1)CS(=O)(=O)C2,-5.47
3,Cc1ccc(N2C(=O)CC(N(O)C3CC(=O)N(c4ccc(C)cc4)C3=O)C2=O)cc1 (stereo not shown),10.2
4,CC1=[N+]([O-])C2(N)CCc3nonc3C2(O)C1 (stereo not shown),6.29
5,CC1CC(C)CN(CCCNC(=O)c2ccc3c(c2)ncn3C2CCCC2)C1 (stereo not shown),2.15
6,CCOC(=O)c1c(C)cc(C)n2c1nc1ccccc12,-10.3
7,O=C(CN(Cc1ccccc1)C(=O)CCC(=O)Nc1ccccn1)NCCc1ccccc1,-25.5
8,Cc1nnc(SCC(=O)N(C)CC(=O)Nc2ccccc2Cl)s1,12.8
9,O=C(/C=C/c1cccc([N+](=O)[O-])c1)NCCSCc1ccc(Cl)cc1Cl,13.1
10,Nc1cccnc1Sc1cccc(Cl)c1,0.956
11,CC(=O)Nc1ccc(S(=O)(=O)N2CCC3(CC2)OCCO3)cc1,9.75
12,Clc1ccc2c(N/N=C/c3ccccc3Br)ccnc2c1,13.5
13,Cc1nnsc1Sc1ccccn1,14.2
14,COc1ccc(-n2c(SCC(=O)N3CCCCC3)nc(O)cc2=O)cc1,0.166
15,O=C(c1cccc(NC2=NC3CS(=O)(=O)CC3S2)c1)N1CCN(c2ccc(F)cc2)CC1 (stereo not shown),13.1
16,O.Oc1cc(O)c2c(c1)OC(c1ccc(O)c(O)c1)C(O)C2 (stereo not shown),0.188
17,COC(=O)N1[C@H](C)C=C[C@]1(Cc1ccccc1)C(=O)OC,8.56
18,N#Cc1ccsc1NC(=O)C1CCN(C(=O)c2ccc(F)cc2)CC1,-6.52
19,COc1ccc(C2C(C(C)=O)=C(O)C(=O)N2CCO)c(OC)c1 (stereo not shown),11.3
20,COc1ccccc1NC(=O)c1ccc(NS(=O)(=O)c2ccc(F)c(F)c2F)cc1,-0.621
21,O=C1NC(=O)/C(=C\c2ccc(Sc3ccc(Cl)cc3)o2)N1,10.8
22,Cn1c(-c2ccccc2)cnc1NCc1cc(Cl)ccc1O,16.9

row,Structure (SMILES),"hERG current change (%, negative = inhibition) at 1uM [%]"
1,CCOC(=O)N1CCN(C(=O)c2ccccc2CCc2ccccc2)CC1,-4.89
2,Cc1cc(NS(=O)(=O)c2ccc(NC(=O)c3oc4ccccc4c3C)cc2)no1,0.431
3,CC(C)CC(NC(=O)c1cccc(Cl)c1)C(=O)O (stereo not shown),17.8
4,O=C(Oc1cccc2cccnc12)c1cccc(N2C(=O)C3C4CCC(C4)C3C2=O)c1 (stereo not shown),3.55
5,Cc1occc1C(=O)NC1CCCCCCC1,11.2
6,Cc1cc(OCC(=O)OC(C)C(=O)Nc2ccc(N3CCOCC3)cc2)ccc1Cl (stereo not shown),2.06
7,CC1=NN(c2ccccc2)C(=O)C1C(=O)c1cc([N+](=O)[O-])cc([N+](=O)[O-])c1 (stereo not shown),7.38
8,Cc1nn(-c2ccccc2)c(Cl)c1/C=N/NC(=O)c1ccncc1,11.9
9,COc1ccc(CNC(=O)C(C)NCc2ccc(S(N)(=O)=O)cc2)cc1 (stereo not shown),0.614
10,COc1cc(S(=O)(=O)N2CCOCC2)cc(C(=O)OCC(=O)NC2CCCCC2)c1OC,13.4
11,CCN(C(=O)CSc1ncnc2c1cnn2-c1ccccc1)C1CCS(=O)(=O)C1 (stereo not shown),9.57
12,COc1ccc(NC(=O)NC(C)C2CC3CCC2C3)cc1 (stereo not shown),9.57
13,CCOC(=O)c1sc(C)c2c1NC(c1ccc(N(C)C)cc1)NC2=O (stereo not shown),1.65
14,O=C(c1cc2ccc([N+](=O)[O-])cc2oc1=O)N1CCOCC1,8.35
15,COc1ccc(C2(NC(C)=O)CCN(C(=O)c3cccs3)CC2)cc1,3.22
16,COc1ccc(C(=O)C2CCCN(C(=O)c3noc4c3CCCC4)C2)cc1F (stereo not shown),12.6
17,CNC(=O)C1C2C=CC3(O2)C1C(=O)N(CCOC)C3C(=O)NCc1ccc(OC)cc1 (stereo not shown),18.3
18,O=C(Oc1cccc2cccnc12)c1ccc(N2C(=O)C3C4CCC(C4)C3C2=O)cc1 (stereo not shown),6.86
19,COc1ccc(S(=O)(=O)N(C)CC(=O)N2CCOCC2)cc1,-2.22
20,COc1cccc(CC2(CO)CCCN(Cc3ccc(-c4ccco4)cc3)C2)c1 (stereo not shown),9.67
21,O=c1[nH]c2ccccc2nc1CCc1ccccc1,5.69
22,CCCOc1cccc(-c2cc(C(=O)N/N=C/c3ccccn3)c3ccccc3n2)c1,5.05

row,Structure (SMILES),"hERG current change (%, negative = inhibition) at 1uM [%]"
1,CCOc1ccc(CN2CCN(C(=O)c3cccc4ccccc34)CC2)cc1.O=C(O)C(=O)O,-3.13
2,COC(=O)COc1ccc(S(=O)(=O)Nc2ccc(NC(C)=O)cc2)cc1C,13.8
3,COc1ccc(S(=O)(=O)NCCC(=O)NCc2ccc(F)cc2)cc1,-8.18
4,Cc1cccc(-n2c(C)n[nH]c2=S)c1C,11.1
5,Cc1ccc(-c2nnn(CC(=O)N(CC(=O)NC3CCCC3)c3ccc(F)c(Cl)c3)n2)o1,2.99
6,COc1ccc(CN2CCCC(C(=O)N3CCCCC3)C2)cc1OC.O=C(O)C(=O)O (stereo not shown),2.85
7,O=C(Nc1ccc(Br)cc1)c1cnccn1,7.97
8,CCN(Cc1ccccc1)S(=O)(=O)c1ccc(C(=O)N(CCCN(C)C)c2nc3cc(OC)ccc3s2)cc1.Cl,-4.97
9,COC(=O)CCCc1nc2ccccc2s1,9.62
10,CCCCn1nc(C(=O)N(CCOC)c2c(N)n(CCCC)c(=O)[nH]c2=O)c2ccccc2c1=O,9.75
11,Cl.Nc1ncnc2sc3c(c12)CCNC3,15.9
12,Cc1ccc2oc(=O)cc(CN3CCN(C/C=C/c4ccccc4)CC3)c2c1,-53.7
13,CCOC(=O)C1CCN(C(=O)CNS(=O)(=O)c2ccc(Br)s2)CC1,1.86
14,COC(=O)c1[nH]c2ccccc2c1NC(=O)c1ccccc1F,12.7
15,O=C(CSC(=S)N1CCOCC1)Nc1ncc2c(n1)CCCC2=O,0.148
16,NC(=O)COC(=O)c1ccc(-c2ccccc2)cc1,6.68
17,C=CCn1c(SCC(=O)Nc2ccc3c(c2)OCCO3)nc2cc(C(=O)O)ccc2c1=O,4.69
18,O=C(c1cccs1)N(Cc1ccccn1)Cc1ccco1,-1.52
19,CC(Sc1nnc(-c2cccnc2)n1C)C(=O)N1CCOCC1 (stereo not shown),1.36
20,COc1ccc(OC)c(NC(=O)Cn2c(CCC(=O)O)ccc2-c2ccc(C)cc2)c1,7.11
21,CCCN1CCN(C(=O)c2cccc3c2C(=O)N(CCOC)C3)CC1,13.6
22,CC(C)c1ccc(S(=O)(=O)N(C)C2(C)CCS(=O)(=O)C2)cc1 (stereo not shown),-22.5

row,Structure (SMILES),"hERG current change (%, negative = inhibition) at 1uM [%]"
1,C=CCNC(=S)NNC(=O)c1ccc(OCCCC)cc1,10.8
2,Nn1c(-c2ccccc2Cl)nnc1-c1ccccc1Cl,8.03
3,O=C(CCC(=O)N1CCOc2ccccc21)Nc1ccccc1Cl,10.9
4,COc1ccc(-n2c(C)cc(/C=C3\C(=N)N4N=C(CC(=O)N5CCOCC5)SC4=NC3=O)c2C)c(OC)c1,15.2
5,CCOC(=O)c1c(C)n(C)c2ccc(OC)c(NC(=O)CCN3CCSCC3)c12,1.26
6,O=S(=O)(Nc1cccc(-n2cnnn2)c1)c1ccccc1,16.8
7,O=C(CCNc1ccc(F)cc1)c1cccc([N+](=O)[O-])c1,-1.05
8,COc1ccccc1CC(=O)O/N=C(\N)Cc1cccc2ccccc12,14.2
9,N#CCCN1CCN(CCC#N)CC1,9.6
10,COC(=O)C1=C(C)N=C2SC(C#N)=C(N)N2C1c1cc(OC)c(OC)c(OC)c1 (stereo not shown),-1.44
11,O=C1CCCCN1CC(=O)N1CCCC(Nc2ccc(F)cc2)C1 (stereo not shown),12.3
12,O=C(Nc1ccc(Cl)cc1Cl)NC1CCN(S(=O)(=O)c2ccc(F)cc2)CC1,10.3
13,COc1cc(C(=O)NCc2ccc(S(N)(=O)=O)cc2)ccc1OCC(=O)N1CCOCC1,12.1
14,CCCc1ccc(OCc2ccc(C(=O)N/N=C/c3cccnc3)o2)cc1,9.65
15,CCC(=O)c1ccc(OCC(=O)OCC(=O)NCCC2=CCCCC2)cc1,2.8
16,CC1(C)Oc2nc3ccccc3n2/C1=C\C#N,9.08
17,O=C(NC1CCCCC1)C(c1ccc(Cl)cc1)N1CCC2(CC1)OCCO2 (stereo not shown),3.06
18,CC(=O)C(Cc1ccccc1)NC(=O)CN1c2cccc3cccc(c23)S1(=O)=O (stereo not shown),16.5
19,O=C1CN(C(=O)NCC(=O)N[C@@H](C(=O)O)c2ccccc2)c2ccccc2N1,4.26
20,Cc1ccc(OCC(=O)Nc2ccc(S(=O)(=O)N3CCOCC3)cc2)c([N+](=O)[O-])n1,8.24
21,CN(Cc1ccccc1)S(=O)(=O)c1ccc2[nH]c(=O)ccc2c1,8.46
22,CC(C)(C)n1nnnc1C(c1ccc(Cl)cc1)N(Cc1cccnc1)Cc1ccco1 (stereo not shown),8.86
